Reference: PubChem BioAssay AID1346378 (National Center for Advancing Translational Sciences (NCATS), 2018)
Where “and” joins values, the source holds several entries; their conditions need not be identical. Identical values can stand only once. Hit rate of the full screen: of about 420,000 compounds, about 540 (0.13%) were called active. Inconclusive means that the source gave no clear call. Such entries were picked first, then a sample of the others. Rule as the data show it: active = activity change below about -50%; inconclusive = mostly about -30% to -49%; inactive = weaker than that.

Target: Phosphatidylinositol 4-kinase type 2-alpha (Homo sapiens) (UniProt Q9BTU6)
Chain of UniProt Q9BTU6 (Q9BTU6 whole entry, looked up): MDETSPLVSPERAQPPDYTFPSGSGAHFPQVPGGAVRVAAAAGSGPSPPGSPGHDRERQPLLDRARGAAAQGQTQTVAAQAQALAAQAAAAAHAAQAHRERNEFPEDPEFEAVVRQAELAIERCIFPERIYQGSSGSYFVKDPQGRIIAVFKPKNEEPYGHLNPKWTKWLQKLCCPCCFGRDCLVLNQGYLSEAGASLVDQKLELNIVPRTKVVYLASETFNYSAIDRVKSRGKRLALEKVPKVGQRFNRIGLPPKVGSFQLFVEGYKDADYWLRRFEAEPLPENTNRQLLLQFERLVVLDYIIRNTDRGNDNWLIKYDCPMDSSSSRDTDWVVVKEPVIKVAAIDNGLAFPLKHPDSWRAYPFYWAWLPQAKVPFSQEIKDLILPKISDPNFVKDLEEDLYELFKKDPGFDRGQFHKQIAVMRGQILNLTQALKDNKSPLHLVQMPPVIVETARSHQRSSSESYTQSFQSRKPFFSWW
Experiment: qHTS for small molecular inhibitors of PI4K2A;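 also: -100% = wells without enzyme as full effect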
Details: purified PI4K2A, ADP-Glo luminescence, 1 h; at 76.9 µM; active compounds read low
From the text: The phosphatidylinositol 4-phosphate (PI4P) is emerging as a key regulator of lipid transfer in ER-membrane contact sites. The four different phosphatidylinositol 4-kinase (PI4K) enzymes generate PI4P in different membrane compartments supporting distinct cellular processes many of which are crucial for the maintenance of cellular integrity but also hijacked by intracellular pathogens. The goal of this screening project is to search for small molecular inhibitors of PI4K2A based on a high throughput screening strategy.The ADP-Glo assay was used as a starting point to develop a miniaturized version for HTS applications. To implement the HTS screen, the PI4K ADP-Glotrade mark Kinase assay (Promega, V9102) was miniaturized for the 1536-well format used at NCGC.
For the robotic screening, the ADP-Glo assay using the ADP-Glotrade mark Kinase Assay kit from Promega was miniaturized and optimized on 1536-well white solid bottom plates (Greiner Bio-one). The substrate, 1.2 mM PI, prepared in the assay buffer (40mM Tris pH7.5, 20mM MgCl2, 1mM EGTA, 0.4% Triton X-100, 0.5mM DTT, 0.5mg/ml BSA) and PI4K2A enzyme, diluted also in the assay buffer to 4ug/mL, were dispensed onto the plates in equal volumes (1microl/well), pinned with 23 nL/well tested compounds or control followed by dispensation of 1microl/well 300microM ATP. The plates were incubated for one hour. Then, 2 µL/well of ADP-Glo reagent was added and incubated for 40 minutes. Next, 4microL/well of Kinase Detection Buffer was added to the plates and incubated for additional 40 minutes. All incubation steps were performed at ambient temperature. The resulting luminescence signal was measured on Viewlux plate reader (PerkinElmer). Adenosine, a partial non-specific inhibitor, was used as a positive control at 100microM final concentration to assess the assay's quality and plate-to-plate reproducibility. We also used "no enzyme" control to gauge the assay's maximal potential inhibition (IC100).

| Structure (SMILES) | activity change, negative = inhibition |
| --- | --- |
| Cc1cc(/C=C2\C(=O)NC(=O)N(Cc3ccco3)C2=O)c(C)n1-c1ccc(O)cc1 | inconclusive: -38.9% |
| COc1ccc(N2C(=O)NC(=O)/C(=C/c3ccc([N+](=O)[O-])s3)C2=O)cc1 | inconclusive: -32% |
| O=C(O)CC1OCC=C2CN3CCC45C6=CC(=O)C(=O)C([N+](=O)[O-])=C6NC4C1C2CC35 (stereo not given) | active: -60.9% |
| C[n+]1c2ccccc2nc2ccc(NCCO)cc21 | inconclusive: -41% |
| CCN(CC)c1ccc(/C=C2/C(=O)NC(=O)N(CC3CCCO3)C2=O)cc1 (stereo not given) | inconclusive: -45.3% |
| C=C1C(=O)O[C@H]2[C@H]1[C@H](OC(=O)CC(=O)O[C@@H]1C[C@@H](C)[C@@H]3C=CC(=O)[C@@]3(C)[C@H]3OC(=O)C(=C)[C@H]13)C[C@@H](C)[C@H]1C=CC(=O)[C@]12C | inconclusive: -44.1% |
| CN1C[C@H](CO)C=C2c3cccc4[nH]cc(c34)C[C@H]21 | inconclusive: -30% |
| Cn1ncnc2c(=O)n(C)c(=O)nc1-2 | active: -52.1% |
| NC(Cc1cc(O)c(O)cc1O)C(=O)O (stereo not given) | active: -80.2% |
| CCOC(=O)c1c(NS(=O)(=O)c2ccccc2)n(CCCOC)c2nc3ccccc3nc12 | inconclusive: -48.2% |
| O=C1NC(=O)C(Nc2ccccc2)C(=O)N1 | inconclusive: -40.3% |
| CCN1/C(=C\C=C\C2=[N+](CC)c3ccccc3C2(C)C)C(C)(C)c2ccccc21 | inconclusive: -43.8% |
| O=[N+]([O-])c1ccc(N(CCO)CCO)c2c1no[n+]2[O-] | inconclusive: -41.5% |
| O=c1[nH]cc(N(CCCl)CCCl)c(=O)[nH]1 | active: -67.3% |
| CN1CCN(c2ccc([N+](=O)[O-])c3no[n+]([O-])c23)CC1 | inconclusive: -37.4% |
| NCCc1cc(O)c(O)cc1O | inconclusive: -39.7% and inconclusive: -45.7% and inconclusive: -41% |
| O=C1NC(=O)N(c2ccc(Cl)cc2)C(=O)/C1=C\c1ccc(Sc2nc3ccccc3[nH]2)o1 | inconclusive: -41.4% |
| CNC(=O)Oc1cccc(-c2cn3cc(Cl)ccc3n2)c1 | inconclusive: -37.1% |
| COc1ccc(C(CNC(=O)Cc2ccc(Cl)c(Cl)c2)N(C)C)cc1 (stereo not given) | inactive: -9.62% |
| COc1cc(Cn2c(N)c(C(=O)NCc3ccco3)c3nc4ccccc4nc32)cc(OC)c1OC | inconclusive: -38.8% |

| Structure (SMILES) | activity change, negative = inhibition |
| --- | --- |
| Cc1cc(C)cc(N2C(=O)NC(=O)/C(=C\c3cccn3-c3ccc(Cl)cc3)C2=O)c1 | active: -50.1% |
| Cc1ccc(N2C(=O)NC(=O)/C(=C\C=C\c3ccco3)C2=O)cc1C | inconclusive: -32.5% |
| O=C(Cc1ccc(Cl)c(Cl)c1)NCC1(N2CCOCC2)CCCCC1 | inactive: -2.54% |
| Cc1cc(C)cc(N2C(=O)NC(=O)/C(=C\c3cccn3-c3ccccc3)C2=O)c1 | inactive: -27.7% |
| O=C1c2ccccc2C(=O)C1C(=O)C(c1ccccc1)c1ccccc1 | inconclusive: -45.7% |
| CCCCn1c(O)c(C=NCCCn2ccnc2)c(=O)[nH]c1=O | inactive: 11.6% |
| COc1ccc(N2C(=O)/C(=C/c3ccco3)C(=O)NC2=S)cc1 | inconclusive: -33.5% |
| Cc1nn(Cc2ccccc2)c(C)c1C=C1C(=O)NC(=O)NC1=O | inconclusive: -48.2% |
| CCOc1ccc(N2C(=O)/C(=C/c3ccco3)C(=O)NC2=S)cc1 | active: -81% |
| CCn1nc(/C=C/c2ccccc2)nc2c(=O)n(C)c(=O)nc1-2 | active: -69% |
| O=C1NC(=O)C(CCc2ccncc2)(CCc2ccncc2)C(=O)N1C1CCCCC1 | inconclusive: -32.4% |
| O=C1NC(=O)N(c2ccccc2)C(=O)/C1=C/c1ccc(Sc2ccccc2)o1 | inconclusive: -31% |
| O=C(O)COc1ccccc1/C=C1\C(=O)NC(=O)N(CCC2=CCCCC2)C1=O | inconclusive: -35.4% |
| CCCCNC(=O)c1c(N)n(CCCOC)c2nc3ccccc3nc12 | active: -58.4% |
| CC[C@H](C)/C=C(C)/C=C/C1=CC2=C(Cl)C(=O)[C@@](C)(OC(C)=O)C(=O)C2=CO1 | inconclusive: -40.5% |
| COc1cc2c(cc1O)[C@@H]1Cc3ccc(OC)c(O)c3CN1CC2 | inconclusive: -39.8% |
| Nc1ncnc2c1ncn2[C@@H]1O[C@H](COP(=O)(O)CP(=O)(O)O)[C@@H](O)[C@H]1O | active: -54.2% |
| CN(N=O)c1ccc(O)c(O)c1 | active: -57.4% |
| COc1ccc(-n2nnnc2C(c2ccnc3ccccc23)N2CCC3(CC2)C(=O)NCN3c2ccccc2)cc1 (stereo not given) | inactive: 0.135% |
| NC(=O)c1ccc(N=Cc2c(O)n(Cc3ccco3)c(=O)[nH]c2=O)cc1 | inconclusive: -37.1% |
